In all, about 310,000 compounds went through this assay and about 2,200 (0.71%) showed an effect of 50% or more. The effect is printed as a negative number. Some of the results follow.

The text below walks through data of PMC4336329 (PLoS ONE, 2015).

The target of the experiment is human ether-à-go-go-related gene (hERG) potassium channel (human, UniProt Q12809). As to the kind of experiment: primary screen, population patch clamp on CHO cells stably expressing hERG.
human ether-à-go-go-related gene (hERG) potassium channel, sequence (Q12809 whole entry, looked up): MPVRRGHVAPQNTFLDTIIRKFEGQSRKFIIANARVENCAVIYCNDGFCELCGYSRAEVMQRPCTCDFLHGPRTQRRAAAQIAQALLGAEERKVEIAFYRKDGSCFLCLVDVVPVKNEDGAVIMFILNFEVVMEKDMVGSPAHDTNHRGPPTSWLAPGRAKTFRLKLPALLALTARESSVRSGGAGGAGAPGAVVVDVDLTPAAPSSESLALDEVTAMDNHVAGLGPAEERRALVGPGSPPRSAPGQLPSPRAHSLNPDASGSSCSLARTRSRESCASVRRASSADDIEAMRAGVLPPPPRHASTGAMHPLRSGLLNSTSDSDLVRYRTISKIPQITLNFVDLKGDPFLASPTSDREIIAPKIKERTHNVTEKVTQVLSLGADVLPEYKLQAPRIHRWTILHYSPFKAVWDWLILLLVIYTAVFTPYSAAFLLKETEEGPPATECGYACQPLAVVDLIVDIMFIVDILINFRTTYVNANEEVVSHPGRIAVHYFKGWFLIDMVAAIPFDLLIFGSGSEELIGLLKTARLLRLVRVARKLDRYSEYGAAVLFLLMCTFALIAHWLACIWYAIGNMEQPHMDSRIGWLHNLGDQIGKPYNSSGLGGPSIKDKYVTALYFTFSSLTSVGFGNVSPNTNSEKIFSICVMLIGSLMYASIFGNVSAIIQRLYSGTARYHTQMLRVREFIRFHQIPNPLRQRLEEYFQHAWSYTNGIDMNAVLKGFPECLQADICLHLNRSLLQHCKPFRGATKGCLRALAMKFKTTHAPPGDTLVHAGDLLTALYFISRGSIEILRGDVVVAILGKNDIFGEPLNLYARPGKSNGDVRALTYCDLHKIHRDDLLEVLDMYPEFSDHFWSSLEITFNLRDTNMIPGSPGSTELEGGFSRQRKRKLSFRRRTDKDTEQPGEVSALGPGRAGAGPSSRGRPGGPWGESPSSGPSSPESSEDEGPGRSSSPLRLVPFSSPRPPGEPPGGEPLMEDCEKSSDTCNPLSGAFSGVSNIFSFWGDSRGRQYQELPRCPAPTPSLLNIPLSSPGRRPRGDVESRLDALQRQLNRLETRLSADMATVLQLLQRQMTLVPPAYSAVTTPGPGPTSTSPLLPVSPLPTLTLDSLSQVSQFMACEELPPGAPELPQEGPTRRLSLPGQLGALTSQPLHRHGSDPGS
On to `CC(=O)Nc1ccc(C(=O)N2CCCC2)cc1`, for which the “hERG current change (%, negative = inhibition) at 1uM” value turned out to be 4.31%.

Turning to `CC(C)Oc1ccc(S(=O)(=O)N2CCCCC2)cc1NC(=O)C1CCC1`, the “hERG current change (%, negative = inhibition) at 1uM” value is on record as 2.97%.

Turning to `COc1cccc(-c2nn(-c3ccccc3)cc2C(=O)O)c1`, the “hERG current change (%, negative = inhibition) at 1uM” value was -1.16%.

For the molecule `CN(C)CCCOC(=O)COc1ccc(Br)cc1.Cl`, the “hERG current change (%, negative = inhibition) at 1uM” value was 7.14%.

With `Cn1nnnc1NCc1cccc(Cl)c1`, the “hERG current change (%, negative = inhibition) at 1uM” value turned out to be 9.85%.

`CCOC(=O)c1ccc(NC(=O)Nc2c(C)nn(C)c2C)cc1`: the “hERG current change (%, negative = inhibition) at 1uM” value is recorded as -2.18%.

As for `Cc1nn(CC(=O)Nc2ccc(Cl)cn2)c(C)c1[N+](=O)[O-]`, the “hERG current change (%, negative = inhibition) at 1uM” value is reported as 1.51%.

With `Cc1cc(C)nc(N2N=C(C(C)(C)C)CC2=O)n1`, the “hERG current change (%, negative = inhibition) at 1uM” value is listed as 7.41%.

Consider `Cc1ccc(OP(=O)(Nc2c(C)n(C)n(-c3ccccc3)c2=O)Oc2ccc(C)cc2)cc1`, for which the “hERG current change (%, negative = inhibition) at 1uM” value turned out to be 3.15%.

Consider `Cc1cccc(C)c1NC(=O)C1CCCN1C(=O)NCc1ccccc1` (stereo not shown), for which the “hERG current change (%, negative = inhibition) at 1uM” value worked out at 16.6%.

Regarding `Cc1ccc(Cl)cc1NC(=O)C(Cc1ccccc1)N1C(=O)C2C3CCC(C3)C2C1=O` (stereo not shown), the “hERG current change (%, negative = inhibition) at 1uM” value is on record as 3.55%.

As to `Cc1nc2c3cc(Cl)ccc3n(CCN3CCCCC3)c2s1.Cl`, the “hERG current change (%, negative = inhibition) at 1uM” value is listed as -32.6%.

For `CC1S/C(=N/N=C2CCC(C(C)(C)C)CC2)NC1=O` (stereo not shown), the “hERG current change (%, negative = inhibition) at 1uM” value was 4.23%.

`CCOC(=O)c1ccccc1NC(=O)C1CCN(c2ncnc3sc(C)c(C)c23)CC1`: the “hERG current change (%, negative = inhibition) at 1uM” value was found to be 9.88%.

Take `Cc1occc1C(=O)NC(C)C1CCCO1` (stereo not shown): the “hERG current change (%, negative = inhibition) at 1uM” value turned out to be 2.36%.

On to `CCCc1cc(C(=O)Nc2sc3c(c2C(=O)OCC)CCCC3)no1`, for which the “hERG current change (%, negative = inhibition) at 1uM” value is listed as 8.91%.

Turning to `Cn1c(SCc2c(Cl)cccc2Cl)nc(C(F)(F)F)cc1=O`, the “hERG current change (%, negative = inhibition) at 1uM” value came out at 4.74%.

Regarding `COc1ccc([C@H]2[C@H](C(=O)OC(C)(C)C)N3N=Cc4ccccc4C3C23C(=O)c2ccccc2C3=O)c(OC)c1` (stereo partly shown), the “hERG current change (%, negative = inhibition) at 1uM” value worked out at 16%.

Turning to `O=C(Nc1cccnc1)C1CCCN(S(=O)(=O)c2ccccc2)C1` (stereo not shown), the “hERG current change (%, negative = inhibition) at 1uM” value is given as -4.7%.

Turning to `COc1ccc(C(=O)NCC(=O)NCC(=O)OCC(=O)C(C)(C)C)cc1`, the “hERG current change (%, negative = inhibition) at 1uM” value came out at 15.2%.

With `Cc1cccc(-c2noc(CCCC(=O)N3CCOCC3)n2)c1`, the “hERG current change (%, negative = inhibition) at 1uM” value stood at 9.5%.

With `O=C(NCc1ccccc1)C1CCCN1S(=O)(=O)c1ccc(F)cc1` (stereo not shown), the “hERG current change (%, negative = inhibition) at 1uM” value is 16.2%.

As to `Cc1ccc2cn[nH]c2c1[N+](=O)[O-]`, the “hERG current change (%, negative = inhibition) at 1uM” value is recorded as 5.43%.

With `O=C(c1ccc(Br)cc1)N(Cc1nc2ccccc2c(=O)[nH]1)C1CCCC1`, the “hERG current change (%, negative = inhibition) at 1uM” value was determined as 7.89%.

With `Cc1cc(CC(C)C)n(-c2nc3ccccc3c(=O)n2OCC(=O)N(C)C)n1`, the “hERG current change (%, negative = inhibition) at 1uM” value is 7.81%.
